{"source": "the supplement of paper PMC8728848", "binders": {"B1": {"name": "CVN-E41G (protein)", "chain": "MHHHHHHENLYFQSGNFSQACYNSAIQGSVLTSTCIRTNGGYNTSSIDLNSVIGNVDGSLKWQGSNFIETCRNTQLAGSSELAAECKTRAQQFVSTKINLDDHIAAIDGTLKYE"}}, "experiment_in_all_cases": "glycan array binding signal (z-score within array); higher = stronger binding", "conditions_in_all_cases": "glycan notation: IUPAC condensed, linker removed; mutation: E41G", "key": {"[1]": {"biological_target": "GlcNAc(b1-4)GlcNAc(b1-4)GlcNAc(b1-4)GlcNAc(b1-4)GlcNAc", "in_short": "(§1)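 Columns mapping to the same glycan were averaged after glycan names were converted to IUPAC-condensed notation. The data come from 3228 arrays in the Consortium for Functional Glycomics database, limited to those with an available protein sequence. Binding is reported as a within-array Z-score averaged across arrays of one protein sequence and across linkers.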"}, "[2]": {"biological_target": "GlcNAc(b1-4)GlcNAc(b1-4)GlcNAc(b1-4)GlcNAc(b1-4)GlcNAc(b1-4)GlcNAc", "in_short": "as §1"}, "[3]": {"biological_target": "GlcNAc(b1-4)[GlcNAc(b1-6)]GalNAc", "in_short": "as §1"}, "[4]": {"biological_target": "GlcNAc(b1-6)Gal(b1-4)GlcNAc", "in_short": "as §1"}, "GlcNAc(b1-6)GalNAc": {"biological_target": "GlcNAc(b1-6)GalNAc", "in_short": "as §1"}, "[5]": {"biological_target": "GlcNAc6S(b1-3)Gal(b1-4)GlcNAc", "in_short": "as §1"}, "Kdn(a2-3)Gal(b1-3)GalNAc": {"biological_target": "Kdn(a2-3)Gal(b1-3)GalNAc", "in_short": "as §1"}, "Kdn(a2-3)Gal(b1-3)GlcNAc": {"biological_target": "Kdn(a2-3)Gal(b1-3)GlcNAc", "in_short": "as §1"}, "Kdn(a2-3)Gal(b1-4)Glc": {"biological_target": "Kdn(a2-3)Gal(b1-4)Glc", "in_short": "as §1"}, "Kdn(a2-3)Gal(b1-4)GlcNAc": {"biological_target": "Kdn(a2-3)Gal(b1-4)GlcNAc", "in_short": "as §1"}, "[6]": {"biological_target": "Kdn(a2-3)Gal(b1-4)[Fuc(a1-3)]GlcNAc", "in_short": "as §1"}, "Kdn(a2-6)Gal(b1-4)GlcNAc": {"biological_target": "Kdn(a2-6)Gal(b1-4)GlcNAc", "in_short": "as §1"}, "[7]": {"biological_target": "Man(a1-2)Man(a1-2)Man(a1-3)Man", "in_short": "as §1"}, "[8]": {"biological_target": "Man(a1-2)Man(a1-2)Man(a1-6)[Man(a1-3)]Man", "in_short": "as §1"}, "Man(a1-2)Man(a1-3)Man": {"biological_target": "Man(a1-2)Man(a1-3)Man", "in_short": "as §1"}, "[9]": {"biological_target": "Man(a1-2)Man(a1-3)[Man(a1-2)Man(a1-6)]Man", "in_short": "as §1"}, "[10]": {"biological_target": "Man(a1-2)Man(a1-3)[Man(a1-2)Man(a1-6)]Man(a1-6)[Man(a1-2)Man(a1-2)Man(a1-3)]Man", "in_short": "as §1"}, "[11]": {"biological_target": "Man(a1-2)Man(a1-3)[Man(a1-2)Man(a1-6)]Man(a1-6)[Man(a1-2)Man(a1-2)Man(a1-3)]Man(b1-4)GlcNAc(b1-4)GlcNAc", "in_short": "as §1"}, "[12]": {"biological_target": "Man(a1-2)Man(a1-3)[Man(a1-6)]Man(a1-6)[Man(a1-2)Man(a1-3)]Man(b1-4)GlcNAc(b1-4)GlcNAc", "in_short": "as §1"}, "[13]": {"biological_target": "Man(a1-2)Man(a1-6)[Man(a1-3)]Man(a1-6)[Man(a1-2)Man(a1-2)Man(a1-3)]Man", "in_short": "as §1"}, "[14]": {"biological_target": "Man(a1-2)Man(a1-6)[Man(a1-3)]Man(a1-6)[Man(a1-2)Man(a1-2)Man(a1-3)]Man(b1-4)GlcNAc(b1-4)GlcNAc", "in_short": "as §1"}, "Man(a1-3)[Man(a1-6)]Man": {"biological_target": "Man(a1-3)[Man(a1-6)]Man", "in_short": "as §1"}, "[15]": {"biological_target": "Man(a1-3)[Man(a1-6)]Man(a1-6)[Man(a1-2)Man(a1-3)]Man(b1-4)GlcNAc(b1-4)GlcNAc", "in_short": "as §1"}, "[16]": {"biological_target": "Man(a1-3)[Man(a1-6)]Man(a1-6)[Man(a1-3)]Man", "in_short": "as §1"}, "[17]": {"biological_target": "Man(a1-3)[Man(a1-6)]Man(a1-6)[Man(a1-3)]Man(b1-4)GlcNAc(b1-4)GlcNAc", "in_short": "as §1"}, "[18]": {"biological_target": "Man(a1-3)[Man(a1-6)]Man(b1-4)GlcNAc(b1-4)GlcNAc", "in_short": "as §1"}, "[19]": {"biological_target": "Man(a1-3)[Man(a1-6)]Man(b1-4)GlcNAc(b1-4)[Fuc(a1-6)]GlcNAc", "in_short": "as §1"}, "Man(a1-6)Man": {"biological_target": "Man(a1-6)Man", "in_short": "as §1"}, "Man(b1-4)GlcNAc": {"biological_target": "Man(b1-4)GlcNAc", "in_short": "as §1"}, "MurNAc(b1-4)GlcNAc": {"biological_target": "MurNAc(b1-4)GlcNAc", "in_short": "as §1"}, "Neu5Ac(a2-3)Gal": {"biological_target": "Neu5Ac(a2-3)Gal", "in_short": "as §1"}, "[20]": {"biological_target": "Neu5Ac(a2-3)Gal(b1-3)GalNAc", "in_short": "as §1"}, "[21]": {"biological_target": "Neu5Ac(a2-3)Gal(b1-3)GalNAc(b1-3)Gal(a1-4)Gal(b1-4)Glc", "in_short": "as §1"}, "[22]": {"biological_target": "Neu5Ac(a2-3)Gal(b1-3)GalNAc(b1-4)Gal(b1-4)Glc", "in_short": "as §1"}, "[23]": {"biological_target": "Neu5Ac(a2-3)Gal(b1-3)GalNAc(b1-4)[Neu5Ac(a2-3)]Gal(b1-4)Glc", "in_short": "as §1"}, "[24]": {"biological_target": "Neu5Ac(a2-3)Gal(b1-3)GalNAc(b1-4)[Neu5Ac(a2-8)Neu5Ac(a2-3)]Gal(b1-4)Glc", "in_short": "as §1"}, "[25]": {"biological_target": "Neu5Ac(a2-3)Gal(b1-3)GalNAc6S", "in_short": "as §1"}, "[26]": {"biological_target": "Neu5Ac(a2-3)Gal(b1-3)GlcNAc", "in_short": "as §1"}, "[27]": {"biological_target": "Neu5Ac(a2-3)Gal(b1-3)GlcNAc(b1-2)Man", "in_short": "as §1"}, "[28]": {"biological_target": "Neu5Ac(a2-3)Gal(b1-3)GlcNAc(b1-2)Man(a1-3)[GlcNAc(b1-4)][Neu5Ac(a2-3)Gal(b1-3)GlcNAc(b1-2)Man(a1-6)]Man(b1-4)GlcNAc(b1-4)GlcNAc", "in_short": "as §1"}, "[29]": {"biological_target": "Neu5Ac(a2-3)Gal(b1-3)GlcNAc(b1-2)Man(a1-3)[Neu5Ac(a2-3)Gal(b1-3)GlcNAc(b1-2)Man(a1-6)]Man(b1-4)GlcNAc(b1-4)GlcNAc", "in_short": "as §1"}, "[30]": {"biological_target": "Neu5Ac(a2-3)Gal(b1-3)GlcNAc(b1-2)[Neu5Ac(a2-3)Gal(b1-3)GlcNAc(b1-4)]Man(a1-6)[Neu5Ac(a2-3)Gal(b1-3)GlcNAc(b1-2)Man(a1-3)]Man(b1-4)GlcNAc(b1-4)GlcNAc", "in_short": "as §1"}, "[31]": {"biological_target": "Neu5Ac(a2-3)Gal(b1-3)GlcNAc(b1-3)Gal(b1-3)GlcNAc", "in_short": "as §1"}, "[32]": {"biological_target": "Neu5Ac(a2-3)Gal(b1-3)GlcNAc(b1-3)Gal(b1-4)GlcNAc", "in_short": "as §1"}, "[33]": {"biological_target": "Neu5Ac(a2-3)Gal(b1-3)GlcNAc(b1-3)GalNAc", "in_short": "as §1"}}, "note": "The other results are listed elsewhere or left out."}
{"binder": "B1", "values": [{"measurement": "glycan array binding signal (z-score)", "setting": "[1]", "value": -0.141}, {"measurement": "glycan array binding signal (z-score)", "setting": "[2]", "value": -0.125}, {"measurement": "glycan array binding signal (z-score)", "setting": "[3]", "value": -0.194}, {"measurement": "glycan array binding signal (z-score)", "setting": "[4]", "value": -0.121}, {"measurement": "glycan array binding signal (z-score)", "setting": "GlcNAc(b1-6)GalNAc", "value": -0.18}, {"measurement": "glycan array binding signal (z-score)", "setting": "[5]", "value": -0.121}, {"measurement": "glycan array binding signal (z-score)", "setting": "Kdn(a2-3)Gal(b1-3)GalNAc", "value": -0.154}, {"measurement": "glycan array binding signal (z-score)", "setting": "Kdn(a2-3)Gal(b1-3)GlcNAc", "value": -0.157}, {"measurement": "glycan array binding signal (z-score)", "setting": "Kdn(a2-3)Gal(b1-4)Glc", "value": -0.07}, {"measurement": "glycan array binding signal (z-score)", "setting": "Kdn(a2-3)Gal(b1-4)GlcNAc", "value": -0.154}, {"measurement": "glycan array binding signal (z-score)", "setting": "[6]", "value": -0.134}, {"measurement": "glycan array binding signal (z-score)", "setting": "Kdn(a2-6)Gal(b1-4)GlcNAc", "value": -0.145}, {"measurement": "glycan array binding signal (z-score)", "setting": "[7]", "value": 7.32}, {"measurement": "glycan array binding signal (z-score)", "setting": "[8]", "value": 9.78}, {"measurement": "glycan array binding signal (z-score)", "setting": "Man(a1-2)Man(a1-3)Man", "value": 5.5}, {"measurement": "glycan array binding signal (z-score)", "setting": "[9]", "value": 8.72}, {"measurement": "glycan array binding signal (z-score)", "setting": "[10]", "value": 11}, {"measurement": "glycan array binding signal (z-score)", "setting": "[11]", "value": 0.041}, {"measurement": "glycan array binding signal (z-score)", "setting": "[12]", "value": 6.59}, {"measurement": "glycan array binding signal (z-score)", "setting": "[13]", "value": 8.16}, {"measurement": "glycan array binding signal (z-score)", "setting": "[14]", "value": 8.78}, {"measurement": "glycan array binding signal (z-score)", "setting": "Man(a1-3)[Man(a1-6)]Man", "value": -0.118}, {"measurement": "glycan array binding signal (z-score)", "setting": "[15]", "value": 4}, {"measurement": "glycan array binding signal (z-score)", "setting": "[16]", "value": -0.129}, {"measurement": "glycan array binding signal (z-score)", "setting": "[17]", "value": 0.273}, {"measurement": "glycan array binding signal (z-score)", "setting": "[18]", "value": -0.165}, {"measurement": "glycan array binding signal (z-score)", "setting": "[19]", "value": 0.148}, {"measurement": "glycan array binding signal (z-score)", "setting": "Man(a1-6)Man", "value": -0.063}, {"measurement": "glycan array binding signal (z-score)", "setting": "Man(b1-4)GlcNAc", "value": -0.122}, {"measurement": "glycan array binding signal (z-score)", "setting": "MurNAc(b1-4)GlcNAc", "value": -0.097}, {"measurement": "glycan array binding signal (z-score)", "setting": "Neu5Ac(a2-3)Gal", "value": -0.196}, {"measurement": "glycan array binding signal (z-score)", "setting": "[20]", "value": -0.136}, {"measurement": "glycan array binding signal (z-score)", "setting": "[21]", "value": -0.163}, {"measurement": "glycan array binding signal (z-score)", "setting": "[22]", "value": -0.111}, {"measurement": "glycan array binding signal (z-score)", "setting": "[23]", "value": -0.163}, {"measurement": "glycan array binding signal (z-score)", "setting": "[24]", "value": -0.17}, {"measurement": "glycan array binding signal (z-score)", "setting": "[25]", "value": -0.148}, {"measurement": "glycan array binding signal (z-score)", "setting": "[26]", "value": -0.157}, {"measurement": "glycan array binding signal (z-score)", "setting": "[27]", "value": -0.161}, {"measurement": "glycan array binding signal (z-score)", "setting": "[28]", "value": 0.122}, {"measurement": "glycan array binding signal (z-score)", "setting": "[29]", "value": -0.059}, {"measurement": "glycan array binding signal (z-score)", "setting": "[30]", "value": 0.185}, {"measurement": "glycan array binding signal (z-score)", "setting": "[31]", "value": -0.184}, {"measurement": "glycan array binding signal (z-score)", "setting": "[32]", "value": -0.141}, {"measurement": "glycan array binding signal (z-score)", "setting": "[33]", "value": -0.139}]}
